Reference: PubChem BioAssay AID624417 (National Center for Advancing Translational Sciences (NCATS), 2012)
The campaign covered roughly 410,000 compounds. About 6,400 (1.6%) were called active. Inconclusive results, whose numbers are uncertain, are shown with a selection of clear calls. The call rests on the fitted dose curve; in most records, active means well fitted inhibition curve with a large enough effect; inconclusive means small, poorly fitted or top-dose-only effect; inactive means no such curve, though single readings can be large or run the other way. No potency is given beside an inconclusive call; the fits are too rough.

target: Glucagon-like peptide 1 receptor (Homo sapiens) (UniProt P43220); test: qHTS of GLP-1 Receptor Inverse Agonists (Inhibition Mode); conditions: HEK293 GLP-1R CRE-luciferase, luminescence, 24 h, GLP-1R form is constitutively active; series mostly up to 38.3 µM; further: nearly all actives have a fitted effect of over 55% in size
How it was run: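 Cells are plated, allowed 12 hours at 37 deg C, then treated with compounds for 24 hr before luciferase detection reagent is added and luminescence is read after 12 min at room temperature. The HEK293 line carries constitutively active GLP-1R with a cAMP-responsive reporter.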
Potency means the concentration at half of the fitted maximal effect; tags describe the fitted curve by direction and shape.

Chain of UniProt P43220 (P43220 whole entry, looked up): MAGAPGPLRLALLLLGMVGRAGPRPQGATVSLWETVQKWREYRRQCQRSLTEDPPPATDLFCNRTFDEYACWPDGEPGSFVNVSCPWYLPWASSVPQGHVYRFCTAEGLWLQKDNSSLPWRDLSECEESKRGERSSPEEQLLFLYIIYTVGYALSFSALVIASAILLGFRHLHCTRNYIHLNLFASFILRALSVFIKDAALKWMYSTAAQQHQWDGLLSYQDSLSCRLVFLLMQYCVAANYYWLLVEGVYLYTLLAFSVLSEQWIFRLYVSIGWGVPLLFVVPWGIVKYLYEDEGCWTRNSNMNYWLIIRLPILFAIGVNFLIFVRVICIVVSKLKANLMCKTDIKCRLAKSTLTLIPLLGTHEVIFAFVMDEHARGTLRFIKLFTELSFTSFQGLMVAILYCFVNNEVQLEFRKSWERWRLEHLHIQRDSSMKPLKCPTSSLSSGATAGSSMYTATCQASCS

Row | Structure (SMILES) | Potency
1 | COc1cccc(NC(=O)CN(C)CC(=O)c2c(C)[nH]c3ccccc23)c1 | inconclusive [inhibitor, partial curve, poor fit]
2 | CCCNC(=S)NNC(=O)c1cc(-c2cccnc2)nc2ccccc12 | inactive
3 | Cc1ccccc1-c1nc(Cc2ccccc2)no1 | inactive
4 | CC(C)(C)NC(=O)CSc1nncn1NCc1cccc2ccccc12 | inconclusive [inhibitor, partial curve, poor fit]
5 | CC1(C)Cc2c(cnn2-c2cccc(F)c2)C(NC(=O)CSc2ccncc2)C1 (stereo not drawn) | inconclusive [inhibitor, single point]
6 | C=CC[C@@H](Cc1ccc(F)cc1)C(=O)OC[C@@H]1CCCN1C(=O)[C@@H](CC=C)CC(=O)N[C@@H](CO)Cc1ccccc1 | inconclusive [inhibitor, single point]
7 | O=C(NCC1CCCN(Cc2ccccc2F)C1)c1cccc(C(F)(F)F)c1 (stereo not drawn) | inconclusive [inhibitor, partial curve, poor fit]
8 | COc1ccc(-c2nnc(SCc3cc(C)cc(C)c3)o2)cc1 | inconclusive [inhibitor, partial curve, poor fit]
9 | CCC(C)NC(=O)COC(=O)c1cc([N+](=O)[O-])ccc1Sc1nc(C)cs1 (stereo not drawn) | inconclusive [inhibitor, partial curve, poor fit]
10 | CC(C)(C)c1ccc(CC(=O)N2CCC2(C)C(=O)Nc2cnc3ccccc3c2)cc1 (stereo not drawn) | inconclusive [inhibitor, partial curve, poor fit]
11 | COc1ccc(CN2CCN(C(=O)c3cc(-c4cccnc4)nc4ccc(Cl)cc34)CC2)c(OC)c1OC | inconclusive [inhibitor, partial curve, poor fit]
12 | Cc1ccn2cc(-c3cccc(NC(=O)c4cccs4)c3)nc2c1 | inconclusive [inhibitor, single point]
13 | CC(C)c1ccc(CN(C(=O)C2COc3ccccc3O2)C2CCS(=O)(=O)C2)cc1 (stereo not drawn) | inconclusive [inhibitor, single point]
14 | Cc1cc(Br)cc(/C=N/NC(=O)c2ccc3c(c2)OCO3)c1O | inconclusive [inhibitor, partial curve]
15 | CSc1cccc(NC(=O)CSc2ccc(C)cc2)c1 | inactive
16 | CC1=C(C(=O)N(C(C)C)C(C)C)CC(CC(=O)NC2CCCCC2)C(=O)N1Cc1ccccc1 (stereo not drawn) | inconclusive [inhibitor, single point]
17 | Oc1ccc(C[C@H]2CNCCN2CCCCC2CCCCC2)cc1 | inconclusive [inhibitor, partial curve, poor fit]
18 | Cc1cc(C(=O)CSc2nc3ccc(Cl)cc3[nH]2)c(C)n1Cc1ccco1 | inconclusive [inhibitor, partial curve, poor fit]
19 | O=S1(=O)NC(=NCC(c2ccco2)N2CCCCC2)c2ccccc21 (stereo not drawn) | inconclusive [inhibitor, partial curve]

Row | Structure (SMILES) | Potency
20 | Cc1ccccc1/C(=N\S(=O)(=O)c1ccc(Br)cc1)Nc1ccccc1 | inconclusive [inhibitor, single point]
21 | CC1(C(=O)NS(=O)(=O)c2ccccc2)CCN1C(=O)C1(c2ccc(Cl)cc2)CCC1 (stereo not drawn) | inconclusive [inhibitor, partial curve, poor fit]
22 | Cc1ccc(Sc2ccc(N3CCCC(C(=O)Nc4ccc(F)cc4F)C3)nn2)cc1 (stereo not drawn) | inconclusive [inhibitor, partial curve, poor fit]
23 | COC(=O)c1cccc(C23CC4(C2)[C@H](CN(Cc2cccnc2)[C@@H]4c2ccccc2)C3c2ccc(Cl)nc2)c1 (stereo partly drawn) | inconclusive [inhibitor, single point]
24 | CCc1ccc(C(=O)OCC(=O)c2c(N)n(CC(C)C)c(=O)n(C)c2=O)cc1 | inconclusive [inhibitor, partial curve, poor fit]
25 | COc1ccc(/C=N/Nc2nc(N3CCCC3)nc(N3CCCC3)n2)cc1 | inactive
26 | CN(c1ncc(C(F)(F)F)cc1Cl)n1cc(C(N)=O)c2ccccc2c1=O | inconclusive [inhibitor, single point]
27 | C=C(C)COc1ccc(-c2nc(N)ncc2-c2ccccc2OC)c(O)c1 | inconclusive [inhibitor, partial curve]
28 | Cc1ccc(F)c(NC(=O)CCc2ccccc2)c1 | inconclusive [inhibitor, single point]
29 | CCOc1ccc(C(=O)C(CN2CCOCC2)c2ccccc2)cc1 (stereo not drawn) | inconclusive [inhibitor, full curve, poor fit]
30 | COc1ccccc1CNC(=O)CCCn1c(=O)c2ccccc2n(Cc2ccc(C)cc2)c1=O | inactive
31 | CN1CCN(C2Cc3ccccc3Sc3ccc(Cl)cc32)CC1 (stereo not drawn) | inconclusive [inhibitor, single point]
32 | O[C@H]1CN(Cc2cccs2)[C@@H](c2ccc(Cl)cc2)C[C@@H]1n1cc(C2CC2)nn1 | inactive
33 | C=CCSc1nnc(NC(=O)c2nc(SCC)ncc2Cl)s1 | inactive
34 | CCCCC[C@H](C)N1C[C@H](COCc2ccccc2)Oc2cc(N3CC[C@H](N(C)C)C3)ccc2S1(=O)=O | inconclusive [inhibitor, single point]
35 | O=C(c1ccccc1C(=O)N1CCN(c2ccc(F)cc2)CC1)N1CCN(c2ccc(F)cc2)CC1 | inconclusive [inhibitor, partial curve, poor fit]
36 | CCOc1ccc(-n2c(SCC(=O)NCc3ccco3)nnc2-c2c[nH]c3ccccc23)cc1 | inconclusive [inhibitor, single point]
37 | Cc1cc(C(=O)NC2CCCc3c2cnn3-c2ccc(C(C)(C)C)cc2)nn1C (stereo not drawn) | inconclusive [inhibitor, partial curve, poor fit]
38 | CCN(c1ccccc1)S(=O)(=O)c1cc(C(=O)OC(C)C(=O)Nc2ccc3c(c2)OCCO3)ccc1C (stereo not drawn) | inconclusive [inhibitor, partial curve, poor fit]
